Reference: publication PMC11243198, “Identification of Novel GANT61 Analogs with Activity in Hedgehog Functional Assays and GLI1-Dependent Cancer Cells” (Molecules, 2024)
Marks after values point to notes of the source that are not given here.

Tests used:
[1] = system: Hh pathway in C3H10T1/2 cells; assay: C3H10T1/2 Hedgehog-responsive cell-based assay, alkaline phosphatase (AP) fluorescence readout; parameters: species or system murine; conditions: for Activity among the fifty-two analogs screened (preliminary SAR): screening for Hh pathway inhibition; for C3H10T1/2 (Flu AP) % inhibition at highest dose tested: SAG 30 nM, 5 days
[2] = system: Gli-luciferase reporter NIH3T3 cell line; assay: Gli-luciferase NIH3T3 reporter assay; type: cell-based; conditions: SAG 26 nM, 30 h; for IC50: Mus musculus, NIH3T3, read-out: Gli-NIH3T3 (luciferase, IC50 μM)
Procedure: In these engineered NIH3T3 cells, the gene for firefly luciferase was stably integrated to be under the transcriptional control of Gli-responsive elements.
Gli reporter NIH3T3 cells (BPS Bioscience, catalog# 60409), a stable cell line that contains firefly luciferase gene under the control of Gli-responsive elements, were used to measure Hh pathway activity. Cells were grown in 96-well plates at a density of 25,000 cells/well for 24 h in Thaw Medium 5 (BPS Bioscience). After 24 h, the medium was replaced with fresh assay media (100 μL) using a Biomek®NX (Brea, CA, USA) automated liquid handler. […] To assess inhibition, the GANT61 analogs were added (serial dilutions of 0.098 to 50 μM) using a D300 system, and cells were then incubated at 37 °C for 30 h. Firefly luciferase activity was measured using the One-Step Luciferase Assay, according to vendor’s protocol (BPS Bioscience, catalog # 60690-1). Briefly, One-Step luciferase reagent (100 μL) was added to each well and incubated by shaking for 20 min at room temperature, followed by luminescence detection using a GloMax plate reader (Promega). To account for background luminescence, cell-free control wells were included. The background-subtracted luminescence of cells stimulated with SAG alone was set as 100% luminescence for calculating percent inhibition of the test compounds. The inhibition curves were plotted using GraphPad Prism 9 to determine IC50 values. Each assay was repeated at least three times.

[3] = system: Hh pathway in C3H10T1/2 cells; assay: C3H10T1/2 AP absorbance (colorimetric, pNPP) assay; type: cell-based, murine; conditions: SAG 30 nM, 5 days; for IC50: Mus musculus, C3H 10T1/2, 120 h, absorbance 405 nm, read-out: C3H10T1/2 (Abs AP, IC50 μM)
[4] = system: Hh pathway in C3H10T1/2 cells; assay: C3H10T1/2 AP fluorescence assay with purmorphamine (PUR) as pathway activator; type: cell-based, murine; conditions: PUR 500 nM, 5 days
[5] = parameters: method as in PMID 29338454; conditions: cited from earlier work

**Q.** For `c1ccc(NCc2ccncc2)cc1` [BAS 06103407], which “Activity among the fifty-two analogs screened (preliminary SAR)” value [1] is on record?
**A.** inactive

**Q.** For `Nc1ccc(CN2CCCCCC2)cc1` [BAS 06348344], which “C3H10T1/2 (Flu AP) % inhibition at highest dose tested” value (“C3H10T1/2 (Flu AP) % inhibition” for short) [1] is on record?
**A.** <20%

**Q.** What about the IC50 [2] of the same compound?
**A.** 0.9 µM

**Q.** What about the “C3H10T1/2 (Abs AP) % inhibition at highest dose tested” value (from here on “C3H10T1/2 (Abs AP) % inhibition”) [3] of the same compound?
**A.** <20%

**Q.** What about the “C3H10T1/2 (PUR; Flu AP) % inhibition at highest dose tested” value (from here on “C3H10T1/2 (PUR; Flu AP) % inhibition”) [4] of the same compound?
**A.** <20%

**Q.** For `CCC(=O)Nc1ccc(N2CCN(Cc3ccccc3)CC2)cc1` [BAS 06844821], which “C3H10T1/2 (Flu AP) % inhibition” value [1] is on record?
**A.** <20%

**Q.** And the “Gli-NIH3T3 (luciferase) % inhibition at highest dose tested” value [2]?
**A.** ~40%

**Q.** And the “C3H10T1/2 (Abs AP) % inhibition” value [3]?
**A.** <20%

**Q.** And the “C3H10T1/2 (PUR; Flu AP) % inhibition” value [4]?
**A.** <20%

**Q.** For `Fc1ccc(NCc2ccncc2)cc1` [BAS 07018849], which “Activity among the fifty-two analogs screened (preliminary SAR)” value [1] is on record?
**A.** inactive

**Q.** Which IC50 [2] does the source give for `c1cc(CNc2ccc(N3CCCC3)cc2)ccn1` [BAS 07019774, pyridin-4-ylmethyl-(4-pyrrolidin-1-yl-phenyl)-amine] here?
**A.** 11.2 µM

**Q.** What about the IC50 [3] of the same compound?
**A.** 3.3 µM

**Q.** With `CN(Cc1ccccc1)C1CCNCC1` [BAS 09681156] as the compound, how does the “C3H10T1/2 (Flu AP) % inhibition” value [1] read?
**A.** <20%

**Q.** And the IC50 [2]?
**A.** 3.8 µM

**Q.** And the “C3H10T1/2 (Abs AP) % inhibition” value [3]?
**A.** ~30%

**Q.** And the “C3H10T1/2 (PUR; Flu AP) % inhibition” value [4]?
**A.** ~40%

**Q.** What does the source list for `N#Cc1ccc(C(=O)Nc2ccccc2C(=O)NC2CC2)cc1` [Compound Z27610715]?
**A.** IC50 [2]: 6.7 µM; C3H10T1/2 (Abs AP) % inhibition at highest dose tested [3]: <20%

**Q.** For `CNC(=O)c1ccc(NC(=O)CCNC(=O)c2ccccc2)cc1` [Compound Z27613695], which “C3H10T1/2 (Flu AP) % inhibition” value [1] is on record?
**A.** <20% ^a

**Q.** What about the “Gli-NIH3T3 (luciferase) % inhibition at highest dose tested” value [2] of the same compound?
**A.** <20%

**Q.** And the “C3H10T1/2 (Abs AP) % inhibition” value [3]?
**A.** <20%

**Q.** And the “C3H10T1/2 (PUR; Flu AP) % inhibition” value [4]?
**A.** <20%

**Q.** What does the source list for `CN(C)c1ccccc1CN1CCCN(Cc2ccccc2N(C)C)C1c1ccncc1` [GANT61]?
**A.** IC50 [2]: 1.9 µM; IC50 [3]: 3.7 µM; stability under physiological conditions [5]: unstable under physiological conditions

**Q.** Which IC90 ([1]; with 30 nM SAG, used as minimum signal control) does the source give for `CC1=C2C[C@H]3[C@@H](CC=C4CC(=O)CC[C@@]43C)[C@@H]2CC[C@]12O[C@@H]1C[C@H](C)CN(CCNC(=O)CCCCCNC(=O)CCc3ccccc3)[C@H]1[C@H]2C` [KAAD-cyc, KAAD-cyclopamine, reference compound] here?
**A.** 0.04 µM
